# The supplement of paper PMC7826260
# Some of the results follow. The data describe in vitro nicking of single-stranded DNA by Rep domains for 1 h at 37 °C with 3 µM enzyme; only the middle of the 90-letter strands is printed. The score is log2 (uncut reads / reads without enzyme); strong cutting gives strongly negative numbers. There is no active / inactive call. Because reads are shares of a total, they shift together; uncut strands gain when others are lost, and binding without cutting may add a little.
# How the values were obtained:
# Experiment in all cases: uncleaved DNA left, log2 of reads against the no-enzyme library (log2 ratio); higher = less cleavage (more negative = more Rep cleavage of the k-mer); sequences stand for … in CTCGTCCG…ACCGGAGA
# [1] = system: T1, Rep nickase domain of Muscovy duck circovirus
# T1 sequence (residues 1-111 of Rep, tag left off): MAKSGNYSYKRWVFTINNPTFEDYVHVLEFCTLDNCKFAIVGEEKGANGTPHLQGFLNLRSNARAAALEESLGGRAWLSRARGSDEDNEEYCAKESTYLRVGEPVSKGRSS
# Procedure: (§1)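 A pool of 90-nt single-stranded DNAs with seven random bases just before the constant AC of the nick site (name = the seven bases) was cut by 3 µM recombinant His6-SUMO-tagged Rep nickase domain (300 nM DNA, 50 mM HEPES pH 8.0, 50 mM NaCl, 1 mM MnCl2, 1 h, 37 °C, three replicates). Uncut DNA was amplified and sequenced.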
# [2] = system: T2, Rep nickase domain of banana bunchy top virus
# T2 sequence (residues 1-94 of Rep, tag left off): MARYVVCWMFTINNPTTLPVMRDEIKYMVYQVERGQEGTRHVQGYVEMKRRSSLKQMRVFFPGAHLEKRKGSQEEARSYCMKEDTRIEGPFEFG
# Procedure: as §1
# [3] = system: T3, Rep nickase domain of cabbage leaf curl virus
# T3 sequence (residues 1-116 of Rep, tag left off): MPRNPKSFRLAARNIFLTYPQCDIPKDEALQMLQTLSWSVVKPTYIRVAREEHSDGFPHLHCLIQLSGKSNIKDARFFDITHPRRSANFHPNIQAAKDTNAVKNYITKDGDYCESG
# Procedure: as §1
# [4] = system: T4, Rep nickase domain of chickpea chlorotic dwarf virus
# T4 sequence (residues 1-124 of Rep, tag left off): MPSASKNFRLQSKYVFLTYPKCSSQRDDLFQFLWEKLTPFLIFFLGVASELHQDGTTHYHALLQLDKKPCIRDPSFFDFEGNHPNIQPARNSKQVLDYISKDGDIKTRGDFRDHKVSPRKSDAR
# Procedure: as §1
# [5] = system: T5, Rep nickase domain of faba bean necrotic yellows virus
# T5 sequence (residues 1-98 of Rep, tag left off): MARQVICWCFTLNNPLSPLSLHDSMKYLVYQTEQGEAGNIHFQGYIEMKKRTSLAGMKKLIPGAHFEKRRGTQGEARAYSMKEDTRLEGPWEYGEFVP
# Procedure: as §1
# [6] = system: T6, Rep nickase domain of maize striate mosaic virus
# T6 sequence (residues 1-117 of Rep, tag left off): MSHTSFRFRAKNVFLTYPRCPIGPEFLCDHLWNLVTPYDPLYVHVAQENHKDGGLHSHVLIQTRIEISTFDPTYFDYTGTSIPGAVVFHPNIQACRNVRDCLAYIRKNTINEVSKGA
# Procedure: as §1
# [7] = system: T7, Rep nickase domain of porcine circovirus 2
# T7 sequence (residues 2-116 of Rep, tag left off): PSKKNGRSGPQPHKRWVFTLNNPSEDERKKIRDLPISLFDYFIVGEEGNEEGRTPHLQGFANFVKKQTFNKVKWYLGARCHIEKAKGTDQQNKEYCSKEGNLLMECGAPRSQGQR
# Procedure: as §1
# [8] = system: T8, Rep nickase domain of tomato golden mosaic virus
# T8 sequence (residues 1-124 of Rep, tag left off): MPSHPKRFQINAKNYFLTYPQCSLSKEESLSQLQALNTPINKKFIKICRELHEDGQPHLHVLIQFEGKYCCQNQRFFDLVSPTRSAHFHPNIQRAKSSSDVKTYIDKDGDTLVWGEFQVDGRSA
# Procedure: as §1
# [9] = system: T9, Rep nickase domain of tomato yellow leaf curl virus
# T9 sequence (residues 1-136 of Rep, tag left off): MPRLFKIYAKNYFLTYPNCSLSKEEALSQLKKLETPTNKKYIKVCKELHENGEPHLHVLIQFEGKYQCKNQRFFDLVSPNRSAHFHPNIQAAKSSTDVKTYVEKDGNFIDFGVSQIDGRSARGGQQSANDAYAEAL
# Procedure: as §1
# [10] = system: T10, Rep nickase domain of wheat dwarf virus
# T10 sequence (residues 1-137 of Rep, tag left off): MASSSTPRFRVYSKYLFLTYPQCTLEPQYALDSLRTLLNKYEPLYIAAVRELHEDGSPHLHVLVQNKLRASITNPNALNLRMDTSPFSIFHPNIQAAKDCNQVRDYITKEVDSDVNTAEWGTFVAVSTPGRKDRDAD
# Procedure: as §1
Sequence,uncleaved DNA left (log2) [1],uncleaved DNA left (log2) [2],uncleaved DNA left (log2) [3],uncleaved DNA left (log2) [4],uncleaved DNA left (log2) [5],uncleaved DNA left (log2) [6],uncleaved DNA left (log2) [7],uncleaved DNA left (log2) [8],uncleaved DNA left (log2) [9],uncleaved DNA left (log2) [10]
AGAGAAG,0.107,0.17,-0.295,-0.166,0.202,-0.689,0.244,0.198,0.118,0.123
GATCGAA,-0.0463,0.102,0.237,0.422,-0.0388,0.277,0.0451,0.0103,0.00148,0.00978
CTCCACT,0.0546,-0.00474,-0.194,-2.14,0.157,-0.629,-0.197,-0.0427,0.00313,0.0787
ATTGCAT,-0.0235,0.0946,-0.596,-0.512,0.114,-0.855,0.0375,0.0276,0.19,-0.0123
TTAGCCG,-0.0409,-0.102,-0.942,-0.377,0.0126,-1.16,0.136,-0.108,-0.14,-0.231
CCCCAGT,-0.163,-0.00926,-0.353,-0.959,-0.263,-0.902,-0.224,-0.125,-0.0631,-0.18
GGCCGTA,-0.00271,0.0858,0.476,0.884,0.0692,1.37,0.0088,0.0768,0.00642,0.0376
TCCTGCC,0.000111,-0.144,-0.3,-0.638,-0.0876,-1.09,-0.0682,-0.174,-0.114,-0.183
TTATAAC,0.0357,-0.018,-0.326,-1.73,0.0144,-0.343,0.0553,0.0527,-0.055,-0.0399
CGGAATG,-0.0594,-0.00467,0.181,1.21,-0.122,1.3,-0.00191,0.076,0.0721,-0.0406
TAACGTG,-0.0157,-0.0344,-0.732,-1.57,-0.00224,-1.18,0.112,-0.0433,-0.0274,-0.228
CGAGACC,-0.0403,-0.164,0.427,0.924,-0.0226,0.448,-0.139,-0.0532,-0.146,-0.124
GACCAGC,-0.12,-0.00494,-0.0787,0.345,-0.142,-0.433,-0.00853,0.0504,0.0132,-0.124
ATGCTAA,-0.0397,-0.0378,-0.145,-0.279,0.0228,-0.868,-0.0304,-0.0373,-0.0167,0.078
CTTCTTG,-0.00843,-0.0389,-0.697,-2.07,-0.0165,-1.25,0.102,-0.0487,0.166,-0.0502
AAGGGGT,0.157,0.00135,0.276,1.47,0.109,1.76,0.257,0.077,-0.0823,0.0169
GGCCCCA,-0.0739,0.1,0.468,0.969,-0.0852,1.66,-0.00643,-0.0317,0.0656,-0.0231
GATCTAA,-0.0248,0.0544,0.222,0.655,-0.0533,1.06,0.025,0.0119,0.129,0.0281
AAGCGAC,-0.00525,-0.0305,-0.0339,0.598,-0.0664,0.741,0.0744,0.0995,-0.112,0.0389
CCAGGTG,-0.0454,0.115,-0.21,-0.184,-0.134,-0.518,0.279,0.0758,-0.0125,-0.0234
TTACGCA,0.0611,-0.0307,-0.149,-1.26,0.0879,-0.678,-0.0477,-0.143,0.0466,0.0343
ATACTTC,0.048,-0.0391,0.0521,-0.985,0.014,-0.704,0.093,0.0345,-0.0659,0.00984
CAGCTCC,0.0327,-0.0755,-0.213,-0.0995,-0.0138,0.855,-0.0579,-0.0512,0.0128,0.0345
CTTGCAA,0.209,0.119,-0.516,-0.412,0.141,-1.03,0.114,0.134,0.23,0.1
TATAAAG,0.103,0.000929,-0.78,-0.921,0.17,-1.15,0.129,0.00723,0.000657,0.011
ATGAATC,0.0933,0.0778,0.0428,0.209,0.0322,-0.597,0.1,0.118,-0.0523,0.0059
CCTAAGT,0.0423,0.119,0.0872,-0.225,0.00514,-0.843,-0.0955,0.0539,0.0688,-0.157
CAGTCCT,-0.735,-2.88,-0.395,-2.74,-2.05,-0.42,-3.77,0.0288,-0.0619,-0.0164
GCGTCGC,-0.209,-0.298,-0.463,-0.353,-0.17,-0.553,-0.138,-0.176,-0.144,-0.336
